Laboratory results taken from a collection of fitness landscapes (doi:10.1126/science.1257360).
Some of the results follow.

B1: PhoQ; a variant is named by its letters at X, in order, P23837 (parent)
chain: MKKLLRLFFPLSLRVRFLLATAAVVLVLSLAYGMVALIGYSVSFDKTTFRLLRGESNLFYTLAKWENNKLHVELPENIDKQSPTMTLIYDENGQLLWAQRDVPWLMKMIQPDWLKSNGFHEIEADVNDTSLLLSGDHSIQQQLQEVREDDDDAEMTHSVAVNVYPATSRMPKLTIVVVDTIPVELKSSYMVWSWFIYVLSANLLLVIPLLWVAAWWSLRPIEALAKEVRELEEHNRELLNPATTRELTSLVRNLNRLLKSERERYDKYRTTLTDLTHSLKTPLXXLQXXLRSLRSEKMSVSDAEPVMLEQISRISQQIGYYLHRASMRGGTLLSRELHPVAPLLDNLTSALNKVYQRKGVNISLDISPEISFVGEQNDFVEVMGNVLDNACKYCLEFVEISARQTDEHLYIVVEDDGPGIPLSKREVIFDRGQRVDTLRPGQGVGLAVAREITEQYEGKIVAGESMLGGARMEVIFGRQHSAPKDE

Variants of: B1
Experiment: enrichment ratio after two sorts for PhoP signalling (ratio (wild type AVST 3.29)); higher = more functional
Settings: with PhoP (E. coli)

Variant	enrichment ratio
EVVF	≤ 0.25
VQRA	≤ 0.25
RQPW	≤ 0.25
SEVF	8.61
DNPL	≤ 0.25
EKSW	≤ 0.25
HCDI	≤ 0.25
YPEW	≤ 0.25
AASV	6.86
HSQE	≤ 0.25
APVA	≤ 0.25
LLYC	≤ 0.25
QMRD	≤ 0.25
MNNK	≤ 0.25
TRYP	≤ 0.25
KNMY	≤ 0.25
GQWC	≤ 0.25
RASW	≤ 0.25
VDDW	≤ 0.25
YMIS	≤ 0.25
NDCL	≤ 0.25
QEDL	≤ 0.25
DAKD	≤ 0.25
NNMM	17.4
VSFI	≤ 0.25
YQDN	≤ 0.25

Variant	enrichment ratio
PFEH	≤ 0.25
YHHT	≤ 0.25
FEFI	≤ 0.25
TLSV	16.7
MPIW	≤ 0.25
VIHG	≤ 0.25
HVDW	≤ 0.25
GLVY	≤ 0.25
DCWF	≤ 0.25
NLGA	≤ 0.25
ERQS	≤ 0.25
VIRY	≤ 0.25
QIHW	≤ 0.25
HEQV	25.5
DAVN	≤ 0.25
GGLG	3.59
LWSC	≤ 0.25
FVSC	≤ 0.25
SRGT	≤ 0.25
AQSA	8.52
YMIT	≤ 0.25
KTRL	≤ 0.25
LSAW	≤ 0.25
DYLF	≤ 0.25
NQVS	≤ 0.25
MGFL	6.97

Variant	enrichment ratio
LFAT	≤ 0.25
DTGW	≤ 0.25
LNLG	≤ 0.25
EVHF	≤ 0.25
SFKV	≤ 0.25
HFIS	≤ 0.25
EMPK	≤ 0.25
YMMG	0.304
GKAM	≤ 0.25
SRIP	≤ 0.25
HWVV	≤ 0.25
GEGM	≤ 0.25
DDIM	≤ 0.25
VNDM	≤ 0.25
TDPK	≤ 0.25
KYIT	≤ 0.25
KVGI	≤ 0.25
FRTV	≤ 0.25
PMQP	≤ 0.25
ISNS	≤ 0.25
NKIN	≤ 0.25
YNVW	≤ 0.25
YPAQ	≤ 0.25
MAGK	≤ 0.25
RQRE	≤ 0.25
HENV	≤ 0.25

Variant	enrichment ratio
TYQT	≤ 0.25
EDVM	≤ 0.25
LDCV	≤ 0.25
GMWD	≤ 0.25
CSYR	≤ 0.25
PCEP	≤ 0.25
VTCT	≤ 0.25
PRWF	≤ 0.25
FKSR	≤ 0.25
MMGI	≤ 0.25
HMGD	≤ 0.25
PCVP	≤ 0.25
AQIG	5.21
VITT	≤ 0.25
HGAL	≤ 0.25
NTLC	≤ 0.25
EIRI	≤ 0.25
TYAA	0.257
ISWA	≤ 0.25
PNYM	≤ 0.25
WDPV	≤ 0.25
YLEW	≤ 0.25
SVAC	3.64
HECL	≤ 0.25
CFLQ	≤ 0.25
RFFL	≤ 0.25

Variant	enrichment ratio
SLMS	0.7
MCKA	≤ 0.25
RVLY	≤ 0.25
FLHH	≤ 0.25
LKGP	≤ 0.25
RDNI	≤ 0.25
TREY	≤ 0.25
QYCP	≤ 0.25
ELHG	≤ 0.25
RHYK	≤ 0.25
GSWR	≤ 0.25
PLNG	≤ 0.25
YFGK	≤ 0.25
AFTG	5.35
MRGM	≤ 0.25
GWAM	≤ 0.25
YAKH	≤ 0.25
WKMW	≤ 0.25
YTCL	5.77
PWPD	≤ 0.25
NWLQ	≤ 0.25
PEMA	≤ 0.25
DLRT	≤ 0.25
LTSK	≤ 0.25
LEKP	≤ 0.25
NEWC	≤ 0.25

Variant	enrichment ratio
YHEC	≤ 0.25
KEVF	≤ 0.25
VKQV	≤ 0.25
NMGY	≤ 0.25
FAKK	≤ 0.25
TMST	6.57
WKVL	≤ 0.25
HWCN	≤ 0.25
DNQS	≤ 0.25
PFWP	≤ 0.25
KMLA	≤ 0.25
LKAG	≤ 0.25
SCAM	11.2
VAYD	≤ 0.25
TEPM	≤ 0.25
KKIW	≤ 0.25
ETEI	≤ 0.25
GHFV	≤ 0.25
VSDI	≤ 0.25
NIWD	≤ 0.25
DKWI	≤ 0.25
YAHN	≤ 0.25
LVWI	≤ 0.25
